Test results published in the supplement of paper PMC10126150.
Values marked as one replicate rest on one cluster of the flow cell; about a third of the high ones do not repeat.

Tested on: ATP
Assay: switch fluorescence ratio, 500 uM ATP over buffer (Cy3 cluster intensity, sum of 5 cycles each) (fold (ratio)); higher = stronger signal-on switching upon ATP binding; sequences stand for … in TCGTCGGCAGCGTCAGATGTGTATAAGAGACAGTTTTTTTTTTTTTTTTTTTTTTTTT…TC
Conditions: aptamer strand: ATP DNA aptamer (quencher-CACCTGGGGGAGTATTGCGGAGGAAGG + anchor), 100 nM annealed; ATP concentration: 500 uM; one replicate
How it was run: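 Cy3-labelled switching-strand clusters on a modified Illumina MiSeq flow-cell were annealed to 100 nM quencher-labelled ATP aptamer, imaged in selection buffer, then imaged after 15 min with 500 uM ATP at 22 °C. Five buffer/ATP cycles ran, with NaOH stripping and re-annealing between them. The fluorescence ratio is summed target-cycle over summed buffer-cycle Cy3 intensity per cluster, averaged per switch-domain sequence. Clusters outside 100-1000 RFU were excluded.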
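Note: ATP exposure 15 min at 22 °C before imaging.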

Sequence	switch fluorescence ratio
CCCAACGGCA	1.07
TCTGTACATA	1.08
CCTAGAACTT	1.05
AACTGCATGT	1.02
AACCGGTCAG	1.06
TAAGGTAGCC	1.02
GTTTTGAGA	0.976
CAGGGCGTTA	0.988
AAGTCCTCTT	0.98
ATGATGTGCC	0.985
GGAATTCGTT	0.969
TAGTCGGCCC	1.01
GGGATGTTGC	1.05
CAACGGCTGG	0.99
AATCCCTACA	1.04
TCGTTTAATG	1.01
CTGCGTACTA	1.17
ACAGTGTTCG	0.988
GACCCTTGGG	0.962
ATTCTTCTCG	1.02
GACTGGGCGC	1
AAGAATCAAG	0.994
CTGGTCTCTG	0.968
GTTGTACAGG	1.02
GCGTTCTGAC	1.01

Sequence	switch fluorescence ratio
GCTACGTAC	1.86
TGTATCGTTG	1.01
GGTAACTAGT	1
GCGAGAGCCG	0.937
AGACAATTAC	1.23
ATCGATCAAA	1.01
GATCATGATT	0.979
GACGGGTTAT	0.992
TTGTTGACCA	0.972
AACCGACTAA	1.25
CACTGCTATC	2.18
GGTACCCGGC	1.04
CCTACTTGAC	1.29
TTTGCTTGAT	1.01
GTATACGAGC	1.06
CGGTGGGAGG	0.998
CGTTGAATCG	1
CTCATTACGA	1.08
TGCGCTTGAA	0.968
CCAAATAACG	1.05
TTCGAACTTG	0.978
GATTGAATGT	0.974
CTGGTCTGGG	1
GAGAATGAGA	0.976
TTATTAGAGT	0.95

Sequence	switch fluorescence ratio
CATGGATGAG	0.934
CGGTGAGATG	1.05
ACTGAATTGT	1
TGGGCGCTGC	1.01
ATTTAGGCCG	1.14
TGCTTAAGTG	1.01
AAAACAATGT	1.04
TGATCTACGG	0.942
GCTTGTTTAA	1.01
GCGTTGTAAG	1.01
ATAAAAATTG	0.937
CTGGGCACCT	1.05
TTATTATGTT	1.02
AGGCACAATG	1.01
CGTAAGTTGT	0.994
ACGGAGGGGC	1.05
CTCGATCTAA	1.01
AGCACATTTA	1.04
CGATCTGCAC	1.55
CCAGGGCAC	1.01
GGTAAGAGCG	1.02
ACTAATACCA	1.05
GTTTACTTGT	0.983
GGACCGATAT	1.08
CCTGATCCTT	1.04

Sequence	switch fluorescence ratio
GGGGAAATAA	0.968
AAAAACCATC	1.05
GTATCAATTG	0.974
TTGACGAGAC	1.18
TCAATGTCGA	0.982
ATAAGCCTTT	1
CAGTGCCGAA	0.999
CCACTTGGTA	1.02
TACTGGTTAG	0.966
ACCGAAAACC	1.07
AAGGGCATCG	0.999
CGACTATTTA	0.987
ACTACCATCA	1.15
TTTGCAACG	0.953
TCGCATCTAT	1.1
TGACAAGGGC	1.04
AGGAAAACTC	1.02
GATGGAAAAT	1.04
GCCCACAAAT	0.986
CCCGATTACC	1.21
ATGAACAGCA	1.02
GAACAGGTCG	1.03
GGACGCGAGG	1.01
GCATGGGATC	1.03
TAAAAATCAG	1.03

Sequence	switch fluorescence ratio
AGTCATAGGG	1.01
GCGGCGCGCT	0.989
GCTTGCATAT	1.02
GGGTCTGCAG	0.945
GCGTCGGCTT	0.967
CATGATCCAA	1.01
TATGTAAAT	0.998
GGTTATTAA	0.976
GAGCGGTCTG	1.02
GGTGGTATGA	0.994
CCAAGGGTTC	1.02
AACGTAGGTC	1.1
AGCGTATGAG	0.988
ACCGGTGTTA	0.998
CCCAGAACGA	1.12
GCGATGCTGA	1.07
AACAGGCTGC	0.987
AATGGCAAGG	0.954
CCGGGTCATC	1.26
TATTGCAGGG	1
CCAAAAATGG	1.05
CTGTTTTCAA	0.938
ATTGCTGCCG	1.02
GTTTTTTTCA	0.97
ACAAAGACAA	1.01

Sequence	switch fluorescence ratio
TGGGAAGTTA	1.02
TGAGCTTTT	1.07
TAACATCGC	0.982
CGTTAGAAAG	0.966
ACATAGTATG	1
GGATAAGGTA	0.978
GTGTTCTAGG	0.975
CCAGAAATT	0.943
TAGTAGGGAC	0.995
GCTGCATGTT	1.06
GGTGTCCGGC	0.928
TGCTCCCCGA	1.06
AACCGGTTTG	0.987
CAACGGAATT	1.09
AGCCTACCTT	1.05
GCCTTATTGA	1.03
CTGGATCAGC	1.1
AGACGCTTC	1.11
AGCGAACCGA	1.11
ACGGTGCAGT	1
CTGGGTTACG	0.951
TGTGGTGATG	1.38
ATAACGACTG	1.46
ATCAAGTTTT	0.999
TCTTTGGCAG	3.92

Sequence	switch fluorescence ratio
TTAGGGCGCA	0.993
TCCAGGTTTG	2.33
GTTCATGGGT	1.04
AACGGCTGAC	1.13
TCTCGATATG	1.01
CTTGATTAGC	1
TGAGGTCGTT	1.03
ACGTTCAGTT	0.972
TGTGATAACT	0.979
ATATGAAGTT	1.02
TTCGCTTTGT	1.03
ATATGTGTG	0.908
TACCCTTGAT	1.01
TACCAACAT	1.16
TCAGGATCGG	0.951
AAGAATTACC	1.05
CCGCTGTAGT	1.97
TTTGTAACCC	1.21
TTGGTGCTCC	1.03
TAATTAAGTA	0.988
TTGGAAGATG	0.961
TCTTATGGGC	0.989
ACTGTTACTG	1.38
TCAATCTTGA	0.974
TTTTAGGCAG	0.987

Sequence	switch fluorescence ratio
TGTGTACTTT	1.01
TATGACGATT	0.976
CACTTTTACG	1.14
AATGCATGGA	1.01
TCTTAAGTTG	1.01
TCCCAGACTC	1.38
TTTCTGGAGC	1.47
GCGTTTGTAT	1.03
TAAACCATGC	1.16
TTGCTGACGT	1.02
GATGCAAATT	1.04
CTGCGGGGTG	1.06
TCAGTTGGTC	1.04
AACATATTTG	0.96
GGTTCCTAA	1.03
CAGGATCACC	1
TCGGCAACCC	1.57
ACGGTTACTT	1.23
GGTCGTCAAC	0.997
GAGTCGTATT	0.983
TAGTCCAGAG	0.974
TCATGCAAAC	2.93
TCTTTCGAAA	2.74
AGACTTGGTT	0.971
AACAAGTACA	1.29
